# According to PubChem BioAssay (Tox21):
# Several values for one entry are separate records, joined by “and”; a condition that tells them apart may be missing. Equal values may be shown once. Inconclusive results, whose numbers are uncertain, are shown with a selection of clear calls. A potency beside an inconclusive call is a rough fit, not a confirmed value. Activity calls are given as the source filed them. Calls follow the shape of the dose curve; as a rule, active = well fitted curve in the direction sought with a large enough effect in the repeat runs; inconclusive = weak or mixed curves; inactive = no such curve, though single readings can be large; an effect the other way counts as inactive or inconclusive.
# Key:
# [1] = qHTS RealTime-Glo MT Cell Viability Assay in HepG2 cells - 40 hour (AID 1224870); also: nearly all actives have a fitted effect of over 50% in size
# Procedure, shortened: (§1)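 HepG2 cells (600/well) mixed with RealTime-Glo MT reagent, settled 5 h at 37 C/5% CO2 before compound addition. Nonlytic NanoLuc luminescence from viable-cell prosubstrate reduction read repeatedly during 40 h treatment at 37 C.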
# [2] = qHTS RealTime-Glo MT Cell Viability Assay in HEK293 cells - 40 hour (AID 1224874); conditions: RealTime-Glo luminescence; max response: stronger effect = lower value; also: nearly all actives have a fitted effect of over 50% in size; as to max response: % is scaled to controls: 0 for no effect and ±100 for the full control effect
# Procedure, shortened: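 Measured as luminescence from the same continuously cultured HEK293 wells at successive time points (0, 8, 16, 24, 32, 40 h) after compound addition. Reagent present from seeding; dosing at 5 h; incubation 37 C.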
# [3] = qHTS RealTime-Glo MT Cell Viability Assay in HepG2 cells - 8 hour (AID 1224873); also: nearly all actives have a fitted effect of over 55% in size
# Procedure, shortened: as §1
# [4] = A CellTox Green Cytotoxicity Assay to monitor cytotoxicity in HEK293 cells - 0 hour (AID 1224869); also: nearly all actives have a fitted effect of over 50% in size
# Procedure, shortened: (§2)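 Homogeneous no-lysis format: HEK293 cell suspension mixed with CellTox Green reagent, seeded, incubated 5 h at 37 C/5% CO2, then dosed by pintool with compound in DMSO.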
# [5] = A CellTox Green Cytotoxicity Assay to monitor cytotoxicity in HEK293 cells - 40 hour (AID 1224871); also: nearly all actives have a fitted effect of over 45% in size
# Procedure, shortened: as §2
# [6] = A CellTox Green Cytotoxicity Assay to monitor cytotoxicity in HEK293 cells - 24 hour (AID 1224875); also: nearly all actives have a fitted effect of over 45% in size
# Procedure, shortened: as §2
# [7] = qHTS RealTime-Glo MT Cell Viability Assay in HEK293 cells - 16 hour (AID 1224872); also: nearly all actives have a fitted effect of over 50% in size
# Procedure, shortened: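 Cells + reagent dispensed (600 cells/well, HEK293) → 5 h at 37 C/5% CO2 → 23 nL compound in DMSO pinned → 40 h at 37 C → luminescence read at 0, 8, 16, 24, 32, 40 h.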
# Potency is read from the fitted curve at half-maximal effect; tags tell the direction and shape of the fitted curve.
structure (smiles),measurement,setting,value
Clc1ccc(C2(Cn3cncn3)OCCO2)c(Cl)c1,Potency,[1],inactive
same,Potency,[2],"inconclusive: 24.5 µM [cytotoxic, partial curve, poor fit]"
CCCCC(CC)COC(=O)OOC(C)(C)C (stereo unspecified),Potency,[1],"inconclusive: 54.9 µM [falling, single point]"
same,Potency,[3],"inconclusive: 7.76 µM [falling, partial curve, poor fit]"
O=P(O)(O)CCCl,Potency,[4],"inconclusive: 49.9 µM [activator, single point]"
same,Potency,[5],"inconclusive: 55.9 µM [activator, single point]"
same,Potency,[6],"inconclusive: 55.9 µM [activator, single point]"
CCCCCCCCCCCCCC[P+](CCCCCC)(CCCCCC)CCCCCC (tested in a mixture with another compound),Potency,[1],active: 24.6 µM
same,Potency,[7],active: 13.8 µM
O=C(O)C(F)(F)C(F)(F)C(F)(F)C(F)(F)C(F)(F)C(F)(F)C(F)(F)C(F)(F)C(F)(F)C(F)(F)F,Potency,[1],"inconclusive: 20.7 µM [falling, single point]"
same,Potency,[3],"inconclusive: 20.7 µM [rising, single point]"
same,max response,[2],inactive: 13.9%
c1ccc2c(c1)sc1ccccc12,Potency,[1],inactive
same,Potency,[5],"inconclusive: 54.9 µM [activator, single point] and inconclusive: 26.8 µM [activator, single point]"
O=[Se]=O,Potency,[1],"inconclusive: 17.3 µM [falling, partial curve]"
CC(C)(C)c1ccccc1O,Potency,[5],"active: 39.4 µM and inconclusive: 49 µM [activator, partial curve, poor fit]"
CCCN(CCC)N=O,Potency,[1],inactive
COc1cc(OC)nc(NC(=O)NS(=O)(=O)c2ncccc2OCC(F)(F)F)n1,Potency,[5],inactive
CC(C)OS(C)(=O)=O,Potency,[1],inactive
same,Potency,[7],inactive
CC(C)Nc1ccc(Nc2ccccc2)cc1,Potency,[1],"inconclusive: 61.4 µM [falling, single point] and inconclusive: 54.9 µM [falling, single point]"
same,Potency,[3],active: 48.8 µM and active: 38.9 µM
same,Potency,[2],active: 17.3 µM and active: 17.4 µM
same,Potency,[6],active: 48.8 µM and active: 54.9 µM
CCCCCCCCCCCCCN1CC(C)OC(C)C1 (stereo unspecified),Potency,[1],inactive
CCOC(=O)C1(c2ccccc2)CCN(CCC(C#N)(c2ccccc2)c2ccccc2)CC1,Potency,[5],"inconclusive: 19 µM [activator, partial curve]"
same,Potency,[3],"inconclusive: 16.9 µM [falling, partial curve]"
CC(=NC#N)N(C)Cc1ccc(Cl)nc1,Potency,[5],inactive
CCCCCCCCCCCCCCCC[n+]1ccccc1,Potency,[5],active: 34.2 µM [middle of 4 runs]
same,Potency,[7],active: 21.6 µM [middle of 4 runs]
CC(=O)/C=C/c1ccc2c(c1)OCO2,Potency,[5],inactive
C=CCc1ccc(OC)cc1,Potency,[5],inactive
Oc1ccc2[nH]cc(CCCCN3CC=C(c4ccccc4)CC3)c2c1,Potency,[5],"inconclusive: 26.8 µM [activator, single point]"
same,Potency,[7],active: 9.52 µM
same,Potency,[3],inactive
same,Potency,[2],"inconclusive: 23.9 µM [cytotoxic, single point]"
C=CCc1cc(OC)c2c(c1)OCO2,Potency,[5],"inconclusive: 57.5 µM [activator, single point]"
same,Potency,[7],inactive
same,Potency,[6],"inconclusive: 57.5 µM [activator, single point]"
CC1CC(CC2CCC(N)C(C)C2)CCC1N (stereo unspecified),Potency,[5],"inconclusive: 62.7 µM [activator, single point]"
same,Potency,[7],"inconclusive: 22.2 µM [cytotoxic, partial curve, poor fit]"
same,Potency,[2],active: 55.8 µM
CC(C)(C)C(O)(CCc1ccc(Cl)cc1)Cn1cncn1 (stereo unspecified),Potency,[5],"inconclusive: 55.6 µM [activator, single point]"
same,Potency,[7],"inconclusive: 49.6 µM [cytotoxic, partial curve] and inconclusive: 49 µM [cytotoxic, single point]"
CC[N+]1(C)CCCC1,Potency,[5],"inconclusive: 55.1 µM [activator, single point]"
same,Potency,[7],"inactive and inconclusive: 43.7 µM [cytotoxic, partial curve]"
